# Some of the results follow.
# T1: UNK ZnF1-3 (human, UniProt Q9C0B0 31-174)
# T1 sequence: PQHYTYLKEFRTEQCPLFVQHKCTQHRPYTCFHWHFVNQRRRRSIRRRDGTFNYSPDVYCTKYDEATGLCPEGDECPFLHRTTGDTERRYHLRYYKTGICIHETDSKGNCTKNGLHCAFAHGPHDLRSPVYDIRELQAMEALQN
# B1: 92120666_92120786_3393_CDS_ENSG00000127980_ENST00000248633|human|control|control (ssRNA)
# RNA: GGGAGUUCUACAGUCCGACGAUCAUCUGGAAGGAUCUCGGACAUCUCUAAAGAAACAAGGGACUGAUCUAAGCCACAUUCUCCAUCUCCAGCUGAAUCGUCAGAGCCACUGCUAUGGUUAAGAAAGACCAUUGAAGACAGACUCAACAGAGGAUUGAGCAUCA
# B2: chr1:244870462:244870463:+_ENSG00000121644_ENST00000302550|hu_mus|motif|central (ssRNA)
# RNA: GGGAGUUCUACAGUCCGACGAUCAUGAAAUUUACUCAAAGACAUGUAUCUUCACACAGAGAAUGUGACUCUCACACGGAUCACGUAUCUAAAGCUGCAGUCAGUACCUUGGAUGUUCCUAUGUUGUAUCCACUACUUACACAGCAACAGAGGAUUGAGCAUCA
# B3: chr7:7679991:7679992:-_ENSG00000106399_ENST00000396682|hu_hu|motif|central (ssRNA)
# RNA: GGGAGUUCUACAGUCCGACGAUCUGGGAUGAAUCUUUUCCAGCCUCCCUACGAAGCAGACAGGCUUGUCGAUGAAUUGAGCGGGCAUGCCGGCGUUGAUGCGCGACCUGGGCAAGUCCAUCAUGUCCACCAUGAUUAUGGUCCCAACAGAGGAUUGAGCAUCA
# B4: chr17:65740002:65740003:+_ENSG00000130935_ENST00000581375|hu_hu|hu_hu_hu_mus_False|1_18 (ssRNA)
# RNA: GGGAGUUCUACAGUCCGACGAUCAACAAAUCUUUCUUCCCUGGACGAACAGGAAGAUUCAUAUUAAAAAAAAUAUAUAUCCAUCAAGUUAGGUGUGGUGGCCACACCUUUACUCCCCACUUCAAUUGAGGUGGAUCCUCUAUUCAACAGAGGAUUGAGCAUCA
# B5: chr17:64801638:64801639:+_ENSG00000154229_ENST00000413366|hu_mus|FALSE|FALSE (ssRNA)
# RNA: GGGAGUUCUACAGUCCGACGAUCUAUAUAUAUAUAUACAUAUGUACACAUAUAUAGUAAAACCCUAGUUAAACGUGUAAAGUAGCCAUUCAUUUUUAAAAUUACAUCUACAUUAAAAAAUUAAUAUAUCUGAUAGAGUGCCAGCAACAGAGGAUUGAGCAUCA
# B6: chr4:25749455:25749456:-_ENSG00000091490_ENST00000264868|hu_hu|hu_hu_hu_mus_False|68_68 (ssRNA)
# RNA: GGGAGUUCUACAGUCCGACGAUCGCACUAUGACCUCUAGAAAAAUCCACAGGGGGAAAAAAUGUAAACCAAUUUACAAUGUUAUCGCCUUCCCUGUGUGUGGAGUGUUUGUCUCAAGGCUCCUUCUAGCUGCUGGAUUUGGGACAACAGAGGAUUGAGCAUCA
# B7: chr8:95500983:95500984:-_ENSG00000164944_ENST00000437199|hu_hu|hu_hu_hu_mus_True|18_18 (ssRNA)
# RNA: GGGAGUUCUACAGUCCGACGAUCAGAACACAUCUAUCGAGUAAAGGACCGUACAUGACGGCCUCUACCACUGCCUCCACUAACAAACUUUCCUCUCGAGCCUCCACUGCCGCUAUUUUGCACUAGCCAGGACGGUCCCAGGCCCAACAGAGGAUUGAGCAUCA
# B8: chr5:145543945:145543946:-_ENSG00000133706_ENST00000545646|hu_hu|hu_hu_hu_mus_True|68_98 (ssRNA)
# RNA: GGGAGUUCUACAGUCCGACGAUCCUGAACGGCCAGUGGCGGGAAAUAAUCAAGCCAGUGCUCUGCUUCAGAAAAUUUCACUAUGUCGUCAUCAGAGAGCCCAAGGGAUUUCAUAAUGUCCCACUGGUACUUAGAAGAUCCUGCCAACAGAGGAUUGAGCAUCA
# B9: chr8:4269914:4269915:-_ENSMUSG00000002949_ENSMUST00000149827|mus_mus|FALSE|FALSE (ssRNA)
# RNA: GGGAGUUCUACAGUCCGACGAUCCUUCUUGGCCUCAUCUCGGAACUUUUUUAUACUUUCUUUCAUCUCUUUGUUUUUGGCUAAUUCUUGUUUGAUGUUAUCUAGCAAGCCUGACAAAAACCCUUUUCUGCUCCCAGAAGAAUACAACAGAGGAUUGAGCAUCA
# B10: 128608204_128610563_306_CDS_ENSG00000144231_ENST00000272645|human|control|control (ssRNA)
# RNA: GGGAGUUCUACAGUCCGACGAUCAAGGUUGGCCAAACAGGCCAACUCAAACUUAUGAAGCUUUUUCUGGAGUAGCAAGCUACGAACACUGGCAAUGGUCUCUCUGUUUUUGAAACGACUGAAACGGGCUGUGUAGUUUAAUGUCAACAGAGGAUUGAGCAUCA
# B11: chr7:141450121:141450122:+_ENSG00000106028_ENST00000265304|hu_mus|hu_hu_hu_mus_True|1_28 (ssRNA)
# RNA: GGGAGUUCUACAGUCCGACGAUCUCAUCCGUUCUAUGCCUUUUCUUUUGUCUGGUCACUCAGAAAUAUAAUGUUAUCAGCUAUGAUUGUUGUUGCUUGCCGCCUCACAUUAUUUUUAUCCAUGUACUCGCCAUAGUCUAUUUUCAACAGAGGAUUGAGCAUCA
# B12: chr3:135125919:135125920:+_ENSMUSG00000078578_ENSMUST00000106291|mus_mus|FALSE|FALSE (ssRNA)
# RNA: GGGAGUUCUACAGUCCGACGAUCCUCUGGCACUAGGGGGUCGUCUGGGUUUGGAUCACAUAGCAGUGAACAAAUGGAUAAAAGAACUUUAGAAAUAGUUAAAGCAGGAGACCACUGUGAUCUUAGAAUAUCAAGACAAAUGCUCAACAGAGGAUUGAGCAUCA
# B13: chr4:107939044:107939045:-_ENSMUSG00000034636_ENSMUST00000043616|mus_mus|motif|central (ssRNA)
# RNA: GGGAGUUCUACAGUCCGACGAUCACUUAUGAUGUCUGUGAUAGUGAUGUCAGCAUUCACACCCGUGGCAUCAAGUUCGGCGGGCUUGUGGUGGCAAAAGGCUUUCCGGAAAGCAACAGCGGAAAUCUUUGCUUUGCGAAUGCACAACAGAGGAUUGAGCAUCA
# B14: chr5:128448638:128448639:+_ENSG00000066583_ENST00000173527|hu_mus|hu_hu_hu_mus_False|8_58 (ssRNA)
# RNA: GGGAGUUCUACAGUCCGACGAUCGGCACUCGCCUUAAUUAGGUUCUGAAUUUCCUUGAACUUCGGGUGGUCUUUGUCAGCUACCAGCUGUAGGAGGACAGCCUCACUAGUGGUCACGAUGAUCCCAGUUCGAGCGAGACGCUCCAACAGAGGAUUGAGCAUCA
# B15: 89288159_89288279_1509_3pUTR_ENSMUSG00000022619_ENSMUST00000023291|mouse|control|control (ssRNA)
# RNA: GGGAGUUCUACAGUCCGACGAUCGUGGCCCGCAAAGAGUGUCCAUGUCCACCAACUCCACGUGGGGCCCUGCCUCAGGGUCUUGGCAGUCCUGGGGUACCGAGUUGGCCUGUGACGCAGCCUCUUCUGGCAGGCGUGGGGCAGCAACAGAGGAUUGAGCAUCA
# B16: 143143844_143143964_2533_3pUTR_ENSMUSG00000029578_ENSMUST00000036872|mouse|control|control (ssRNA)
# RNA: GGGAGUUCUACAGUCCGACGAUCACCUCACUUUCCUGCCCUUGUAAGACCAAAAGAAAAGGCACAUCACCCCGGGAGGGAAUCUCCUGCCGCCUCCCUGGGAGGGGGAGGGGCCCCUCUACUCUCUGCUAUGUCUGGGGAGGGCAACAGAGGAUUGAGCAUCA
# B17: 156714060_156723743_301_CDS_ENSG00000055163_ENST00000521420|human|control|control (ssRNA)
# RNA: GGGAGUUCUACAGUCCGACGAUCCUCCAGCACCUCUACUGUCUUCUCAUAGAUCUCUACUCGGUUGGGCUGCUCGUUGCAUUUCACCAUGCUGGAGUGGACUGUAGCCUGCUCAAUGUACCUUGCAAUGCCCGUGACAAAUGCCAACAGAGGAUUGAGCAUCA
# B18: chr17:88379672:88379673:+_ENSMUSG00000005370_ENSMUST00000005503|mus_hu|FALSE|FALSE (ssRNA)
# RNA: GGGAGUUCUACAGUCCGACGAUCUCCCUUCUGGGCUUCCUUUGAUUUUGAACCUGUAUAUGGCUUUAAAAGCCUUUUGCUAACCCAGCCCCUUGUUGGGCUGUCAUCAAAAAACUGUACAUGAACACGGACUGAUUUCCCUUUCAACAGAGGAUUGAGCAUCA
# B19: 64804437_64804557_6387_3pUTR_ENSG00000154229_ENST00000413366|human|control|control (ssRNA)
# RNA: GGGAGUUCUACAGUCCGACGAUCAACGUGAGAAAAUGACUGUCAGAUGGUAUCACCUUUCCGAGGCUUUUAAAAAUACAAGAUUGUCACUUUUUCUCUUUUCAGUACUGAGAAAACAAAUUCCAGCAAAAAAAAAAAAAACAGCAACAGAGGAUUGAGCAUCA
# B20: chr17:45705486:45705487:-_ENSMUSG00000023944_ENSMUST00000024739|mus_hu|FALSE|FALSE (ssRNA)
# RNA: GGGAGUUCUACAGUCCGACGAUCAUUGGCUGUCCAGCCGUAGGUGCUGGUCACAAUGCAGCAAGGUGAAGACACAAGUCUAUUGGAGAUUGUCACCUUCUCAACCUUCUUAUCUAAGAUUUCUUUCAUGAGCUUGCAGAGGUUCAACAGAGGAUUGAGCAUCA
# B21: chr1:39494447:39494448:+_ENSG00000168653_ENST00000372967|hu_mus|hu_hu_hu_mus_False|1_48 (ssRNA)
# RNA: GGGAGUUCUACAGUCCGACGAUCGCACCGAGCGGCGUUCUUAUAGGGCUGUUCUGCGCUUAGGAACAUAAAGUGCCGGUCCAGGCUAAGGCCGAACUUUUUCUGUAUGUCAAGGAAAGGCAUGGCUCUGCAGUGCCCCCUUGACAACAGAGGAUUGAGCAUCA
# B22: chr11:18422405:18422406:+_ENSG00000134333_ENST00000379412|hu_hu|motif|central (ssRNA)
# RNA: GGGAGUUCUACAGUCCGACGAUCCAGCUUGGAGUUUGCAGUUACAUUAUAGUCUUUGCCAGAGACAAUCUUUGGUGUUCGGAGGAAAAGGCUGCCAUGUUGGAGAUCCAUCAUCUCUCCCUUCAAUUUGUCUUCGAUGACAUCCAACAGAGGAUUGAGCAUCA
# Target: T1, UNK ZnF1-3
# Assay: nsRBNS (natural sequence RNA bind-n-seq); RBNS binding buffer (assumed for nsRBNS): 25 mM Tris pH 7.5, 150 mM KCl, 3 mM MgCl2, 0.01% Triton X-100, 500 ug/ml BSA, 20 U/ml SUPERase-In, 4 C; UNK is unkempt and MSI1 is Musashi-1; names of the RNAs are library labels; protein concentration not given here; high values mean tight binding
row,Binder,binding signal
1,B1,1.27 enrichment R
2,B2,0.518 enrichment R
3,B3,0.879 enrichment R
4,B4,0.808 enrichment R
5,B5,2.01 enrichment R
6,B6,0.98 enrichment R
7,B7,1.12 enrichment R
8,B8,1.26 enrichment R
9,B9,0.708 enrichment R
10,B10,0.928 enrichment R
11,B11,0.428 enrichment R
12,B12,1.81 enrichment R
13,B13,1.08 enrichment R
14,B14,0.758 enrichment R
15,B15,0.56 enrichment R
16,B16,1.86 enrichment R
17,B17,0.831 enrichment R
18,B18,0.522 enrichment R
19,B19,2.14 enrichment R
20,B20,1.02 enrichment R
21,B21,0.68 enrichment R
22,B22,0.638 enrichment R

# From publication PMC12136788
